Assay results taken from the BET-seq Pho4 binding data (Le et al. 2018).
The other results are listed elsewhere or left out. Values were computed here from the reads of four pooled replicates and scatter widely.

Molecular target: T1, Pho4 (S. cerevisiae) (UniProt P07270)
T1 sequence: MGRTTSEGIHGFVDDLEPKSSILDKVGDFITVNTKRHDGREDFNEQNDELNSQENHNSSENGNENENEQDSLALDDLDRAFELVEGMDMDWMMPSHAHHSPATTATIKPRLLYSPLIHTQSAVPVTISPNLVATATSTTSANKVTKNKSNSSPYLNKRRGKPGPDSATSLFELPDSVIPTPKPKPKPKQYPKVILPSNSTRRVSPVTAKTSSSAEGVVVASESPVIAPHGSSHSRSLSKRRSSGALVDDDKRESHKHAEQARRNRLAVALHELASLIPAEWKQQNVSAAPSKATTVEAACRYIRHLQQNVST
Assay: relative binding free energy (BET-seq); higher = weaker binding
Conditions: reference: library average

| Sequence | relative binding free energy |
| --- | --- |
| GGTATCACGTGCGTTT | 0.19 kcal/mol |
| CGTGACACGTGTAGGG | -0.12 kcal/mol |
| AGTCACACGTGGTGAG | -0.07 kcal/mol |
| AGCGGCACGTGGTAAT | -0.1 kcal/mol |
| AGTTTCACGTGACTGG | 0.28 kcal/mol |
| TATGGCACGTGGGGGT | -0.16 kcal/mol |
| TTGGGCACGTGGATCG | 0.02 kcal/mol |
| AGACTCACGTGTGTGT | 0.13 kcal/mol |
| GGATACACGTGAGGGC | 0.2 kcal/mol |
| TCGATCACGTGGGTCT | 0 kcal/mol |
| CTTTACACGTGTGGCT | 0.24 kcal/mol |
| AGATGCACGTGGGAGG | -0.25 kcal/mol |
| TATTGCACGTGTGTAT | 0.02 kcal/mol |
| TATGGCACGTGTATTC | -0.13 kcal/mol |
| AGTTGCACGTGTACGT | 0.05 kcal/mol |
| GTAGTCACGTGCGGCT | 0.23 kcal/mol |
| AATATCACGTGTATTA | 0.09 kcal/mol |
| TTATTCACGTGGATCG | 0.24 kcal/mol |
| GGGCGCACGTGTCAGT | -0.09 kcal/mol |
| TGTGTCACGTGTAAGC | 0.2 kcal/mol |
| CAATTCACGTGGGGTG | 0.18 kcal/mol |
| CGGGACACGTGGTTTT | 0.06 kcal/mol |
| GGTCGCACGTGATGGT | 0.22 kcal/mol |

| Sequence | relative binding free energy |
| --- | --- |
| AAAAGCACGTGGTCGG | -0.09 kcal/mol |
| TATTCCACGTGCGGGT | 0.04 kcal/mol |
| ATGGGCACGTGAGTAG | 0.12 kcal/mol |
| GGAAGCACGTGTGGCG | -0.19 kcal/mol |
| AGTTCCACGTGAATTT | 0.22 kcal/mol |
| TTTGGCACGTGAGTAA | 0.2 kcal/mol |
| GTTATCACGTGTGCGC | 0.19 kcal/mol |
| AAGGTCACGTGAGGCT | 0.2 kcal/mol |
| TTTATCACGTGCATTG | 0.07 kcal/mol |
| TATGGCACGTGCTGCG | -0.19 kcal/mol |
| GGTGTCACGTGATATT | 0.2 kcal/mol |
| CAGGACACGTGAGGGG | 0.34 kcal/mol |
| ATGGTCACGTGTGCCG | 0.13 kcal/mol |
| CTTTCCACGTGTGGGG | 0.03 kcal/mol |
| TCTTGCACGTGAAGGG | 0.12 kcal/mol |
| GGGATCACGTGATCGT | 0.37 kcal/mol |
| GTGGGCACGTGCATTA | -0.17 kcal/mol |
| TATTTCACGTGGTTTG | 0.29 kcal/mol |
| TAGCGCACGTGTCGGG | -0.19 kcal/mol |
| GGTCACACGTGGTTTA | 0.17 kcal/mol |
| GTGGACACGTGTATAT | 0.2 kcal/mol |
| AGGGCCACGTGGGGAA | -0.19 kcal/mol |
| AGCGTCACGTGATGGT | 0.18 kcal/mol |

| Sequence | relative binding free energy |
| --- | --- |
| AATAGCACGTGGGGGA | -0.17 kcal/mol |
| TGTAGCACGTGGAATT | 0.08 kcal/mol |
| AGCGTCACGTGACGTG | 0.08 kcal/mol |
| TCGGTCACGTGGTCGT | 0.07 kcal/mol |
| TCGGTCACGTGGTTGT | 0.07 kcal/mol |
| ATTAGCACGTGAGTCT | 0.19 kcal/mol |
| CGGAGCACGTGGCGTT | -0.1 kcal/mol |
| CTGAGCACGTGGGGTG | -0.36 kcal/mol |
| AGTGTCACGTGGCTCT | 0.05 kcal/mol |
| ATAGTCACGTGTACTG | 0.01 kcal/mol |
| TTTCTCACGTGGTTGT | 0.17 kcal/mol |
| TACGGCACGTGAATGT | 0.17 kcal/mol |
| TGCTGCACGTGGTAGT | -0.08 kcal/mol |
| GTCAACACGTGGGTGG | -0.03 kcal/mol |
| ATGAACACGTGTGGGT | 0.04 kcal/mol |
| ACGGGCACGTGTCGGT | -0.04 kcal/mol |
| GGGAGCACGTGTGTTC | 0.03 kcal/mol |
| TTTGGCACGTGGCGAT | -0.13 kcal/mol |
| AGTTGCACGTGAGGGC | 0.18 kcal/mol |
| TCTGGCACGTGCAGGT | -0.13 kcal/mol |
| GATCACACGTGTGGTT | 0.14 kcal/mol |
| AGTGACACGTGTGTAT | 0.06 kcal/mol |
| TATCGCACGTGCGTTG | -0.08 kcal/mol |

| Sequence | relative binding free energy |
| --- | --- |
| GGTTGCACGTGTTCAG | -0.11 kcal/mol |
| GAGGGCACGTGTTAGG | 0.01 kcal/mol |
| GGTTTCACGTGTTCTG | 0.3 kcal/mol |
| GTCGTCACGTGAGTTA | 0.24 kcal/mol |
| GGGTTCACGTGAGTAG | 0.53 kcal/mol |
| TACGACACGTGTGGGG | 0.05 kcal/mol |
| TAAAGCACGTGTTCTG | -0.04 kcal/mol |
| TTTTACACGTGGTATA | 0.03 kcal/mol |
| CGGGGCACGTGGCTGT | -0.28 kcal/mol |
| TTAAACACGTGTTAGG | 0.03 kcal/mol |
| ATAGTCACGTGAGTAG | 0.33 kcal/mol |
| AGTGTCACGTGGTTCT | 0.01 kcal/mol |
| ATGAACACGTGTTGAT | 0.09 kcal/mol |
| GGTCGCACGTGGTATT | -0.01 kcal/mol |
| GTTGCCACGTGTGTAT | -0.07 kcal/mol |
| TTGTTCACGTGCGATG | 0.38 kcal/mol |
| CGGGGCACGTGCGATT | 0.01 kcal/mol |
| GATGCCACGTGGGCAG | -0.03 kcal/mol |
| GCCAGCACGTGGGGTT | -0.16 kcal/mol |
| GTTGGCACGTGGAATG | 0.01 kcal/mol |
| GACGTCACGTGGTTTA | -0.03 kcal/mol |
| TCTGGCACGTGATCGT | 0.08 kcal/mol |
| TGTGACACGTGGAGTA | -0.13 kcal/mol |

| Sequence | relative binding free energy |
| --- | --- |
| TGTGACACGTGCGGTG | -0.05 kcal/mol |
| AATGCCACGTGGGTAT | -0.28 kcal/mol |
| GAAGTCACGTGCGGTG | 0.24 kcal/mol |
| AAAGTCACGTGAAGTT | 0.27 kcal/mol |
| GGCTACACGTGATGGT | 0.21 kcal/mol |
| TGTGGCACGTGCCGAG | -0.15 kcal/mol |
| ATGTGCACGTGTCGTG | -0.08 kcal/mol |
| AATGACACGTGGTGAT | -0.1 kcal/mol |
| GTGTTCACGTGCAATG | 0.23 kcal/mol |
| GTCGGCACGTGGGTAT | -0.11 kcal/mol |
| TTTAGCACGTGACAGT | 0.14 kcal/mol |
| TAATTCACGTGTAGCG | 0.32 kcal/mol |
| GCATTCACGTGATGGG | 0.35 kcal/mol |
| GGCATCACGTGTATGG | 0.08 kcal/mol |
| TGTTACACGTGTTTTT | 0.16 kcal/mol |
| CGTCTCACGTGTGAGG | 0.33 kcal/mol |
| GCTGTCACGTGAAGTT | 0.42 kcal/mol |
| CATTGCACGTGAATGT | 0.4 kcal/mol |
| AGTATCACGTGGTTAG | 0.06 kcal/mol |
| GAGTGCACGTGACGGG | 0.13 kcal/mol |
| TGTTACACGTGTTGAT | 0.15 kcal/mol |
| ACGGTCACGTGTCGGG | 0.07 kcal/mol |
| GAAATCACGTGGGAGG | -0.07 kcal/mol |
